Consider 45 compounds from publication PMC4336329 (PLoS ONE, 2015).

In all, about 310,000 compounds went through this assay and about 14,000 (4.5%) showed an effect of 50% or more. The effect is printed as a negative number. The list shows a part of the results. Where a SMILES comes first, the peptide text is derived from it. The star is where a group is joined. OBn = c1ccc(CO*)cc1
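Further: peak tail current of the secondary pulse compared with the same well before compound.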

For this assay, the target named is human ether-à-go-go-related gene (hERG) potassium channel (human, UniProt Q12809). Briefly: primary screen, population patch clamp on CHO cells stably expressing hERG.
Chain of human ether-à-go-go-related gene (hERG) potassium channel (Q12809 whole entry, looked up): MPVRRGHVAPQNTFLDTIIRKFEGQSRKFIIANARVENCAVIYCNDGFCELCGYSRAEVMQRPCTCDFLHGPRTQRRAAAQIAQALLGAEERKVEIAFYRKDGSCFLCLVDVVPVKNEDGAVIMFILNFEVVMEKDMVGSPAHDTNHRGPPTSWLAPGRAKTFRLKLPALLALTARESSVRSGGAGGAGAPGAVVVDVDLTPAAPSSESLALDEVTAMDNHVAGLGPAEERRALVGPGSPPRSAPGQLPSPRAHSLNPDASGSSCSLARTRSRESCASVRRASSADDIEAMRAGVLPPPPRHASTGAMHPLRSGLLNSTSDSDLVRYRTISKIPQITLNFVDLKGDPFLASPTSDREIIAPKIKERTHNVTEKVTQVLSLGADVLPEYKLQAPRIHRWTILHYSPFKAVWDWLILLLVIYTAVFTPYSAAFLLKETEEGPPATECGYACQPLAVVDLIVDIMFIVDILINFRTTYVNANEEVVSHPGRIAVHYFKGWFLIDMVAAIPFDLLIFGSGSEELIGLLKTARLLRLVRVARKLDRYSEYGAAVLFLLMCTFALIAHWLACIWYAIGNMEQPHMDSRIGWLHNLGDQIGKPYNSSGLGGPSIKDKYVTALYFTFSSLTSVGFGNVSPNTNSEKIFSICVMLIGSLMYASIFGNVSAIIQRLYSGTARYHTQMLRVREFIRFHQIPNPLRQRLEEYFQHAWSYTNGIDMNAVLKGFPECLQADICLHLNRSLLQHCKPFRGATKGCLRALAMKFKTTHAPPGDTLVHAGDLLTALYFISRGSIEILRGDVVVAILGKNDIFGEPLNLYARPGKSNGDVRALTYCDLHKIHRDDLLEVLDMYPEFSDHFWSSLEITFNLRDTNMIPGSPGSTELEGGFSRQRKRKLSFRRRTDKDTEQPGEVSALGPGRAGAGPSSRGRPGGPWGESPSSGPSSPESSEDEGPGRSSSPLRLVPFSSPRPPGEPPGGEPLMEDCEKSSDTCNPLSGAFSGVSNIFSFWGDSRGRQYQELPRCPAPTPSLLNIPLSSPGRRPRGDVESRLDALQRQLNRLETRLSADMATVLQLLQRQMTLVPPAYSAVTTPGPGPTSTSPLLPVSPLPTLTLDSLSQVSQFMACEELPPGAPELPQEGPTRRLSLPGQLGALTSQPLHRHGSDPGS
Take `COc1ccc(-c2c(C)oc3c(CN4CCCCC4C)c(O)ccc3c2=O)cc1OC` (stereo not drawn): the “hERG current change (%, negative = inhibition) at 10uM” value was -2.11%. Next, `O=C(O)C(=O)O.O=C(c1ccco1)N1CCN(Cc2ccccc2Br)CC1`: 5.99%. For the compound `CCCc1cc(=O)[nH]c(SCC(=O)N(C)C2CCS(=O)(=O)C2)n1` (stereo not drawn), the “hERG current change (%, negative = inhibition) at 10uM” value is 6%. With `CCn1c2ccccc2c2cc(CN3CCN(S(C)(=O)=O)CC3)ccc21.O=C(O)C(=O)O`, the “hERG current change (%, negative = inhibition) at 10uM” value is given as 2.38%. On to `COc1ccc(/C=N/NC(=O)CSc2ccccc2)cc1OC`, for which the “hERG current change (%, negative = inhibition) at 10uM” value is -14.1%. As to `O=C(c1ccc(CN2CCOCC2)cc1)N1CCN(Cc2ccccc2)CC1`, the “hERG current change (%, negative = inhibition) at 10uM” value turned out to be 15.4%.

In the case of `CCn1c2ccccc2c2cc(NC(=O)CNCc3ccccc3OC)ccc21`, the “hERG current change (%, negative = inhibition) at 10uM” value was found to be 15.1%. Next, `c1ccc2c(c1)OCC(c1nn3c(Cn4nnc5ccccc54)nnc3s1)O2` (stereo not drawn): -18.4%; `CCOC(=O)C1(Cc2cccc(OC)c2)CCCN(S(=O)(=O)N(C)C)C1` (stereo not drawn): 7.41%. For the compound `CC1=CS(=O)(=O)CC1SC1=Nc2ccccc2[NH2+]1.[Br-]` (stereo not drawn), the “hERG current change (%, negative = inhibition) at 10uM” value was found to be 12.9%. With `COc1ccc(NS(=O)(=O)c2ccc(N/N=C/c3ccc(N4CCOCC4)cc3)c([N+](=O)[O-])c2)cc1`, the “hERG current change (%, negative = inhibition) at 10uM” value is on record as -0.831%. Consider `CC(=O)NCC(=O)N[C@@H](CC(=O)OCc1ccccc1)C(=O)OCc1ccccc1` (Ac-Gly-Asp(OBn)-OBn), for which the “hERG current change (%, negative = inhibition) at 10uM” value was found to be 8.93%. On to `COc1ccc(C(=O)Nc2cc(S(=O)(=O)N3CCCCC3)ccc2OC)cc1`, for which the “hERG current change (%, negative = inhibition) at 10uM” value is listed as 16.2%. Take `Cc1nc2ccccc2c2oc(C(=O)NCc3ccc4c(c3)OCO4)cc12`: the “hERG current change (%, negative = inhibition) at 10uM” value was -15%. Regarding `N#CC(c1ccc(Cl)cc1)c1cccc(Cl)n1` (stereo not drawn), the “hERG current change (%, negative = inhibition) at 10uM” value is reported as 1.46%. In the case of `N#CCC(=N)N1CCN(c2ccccc2)CC1`, the “hERG current change (%, negative = inhibition) at 10uM” value is 1.97%. Turning to `CCN1/C(=C2/SC(=S)N(NC(C)=O)C2=O)Sc2ccc(OC)cc21`, the “hERG current change (%, negative = inhibition) at 10uM” value was determined as 5.14%. In the case of `C=CCn1c(O)c(N=O)c2cc(C)ccc21` it was -8.69%. Consider `C=CCN(C(=O)Nc1ccc(F)cc1)C1CC(=O)N(c2ccc(OC)cc2)C1=O` (stereo not drawn), for which the “hERG current change (%, negative = inhibition) at 10uM” value is given as -14.3%. As to `C=CCNc1nnc(Cl)c2ccccc12`, the “hERG current change (%, negative = inhibition) at 10uM” value is reported as -10.4%. Next, `CC1CC(C)CN(CC(O)COCc2ccccc2F)C1.Cl` (stereo not drawn): -23.4%. For the compound `C=CC(C)C(C(=O)c1ccccc1)N(C)C` (stereo not drawn), the “hERG current change (%, negative = inhibition) at 10uM” value stood at 27.8%. Take `CCc1ccc(NCc2cc3c(C)nn(-c4ccccc4)c3[nH]c2=O)cc1`: the “hERG current change (%, negative = inhibition) at 10uM” value came to 15.7%. In the case of `COc1ccc(C2c3c(ncn(Cc4ccco4)c3=N)Oc3ccc4ccccc4c32)cc1` (stereo not drawn), the “hERG current change (%, negative = inhibition) at 10uM” value was -7.04%. For the compound `COc1cc(C(CC(=O)N2CCCC2)c2c(OC)cc(OC)c3ccc(=O)oc23)cc(OC)c1OC` (stereo not drawn), the “hERG current change (%, negative = inhibition) at 10uM” value came to 2.42%. As for `O=C(CN(C(=O)CNS(=O)(=O)c1ccc(F)cc1)c1ccccc1)NCc1ccco1`, the “hERG current change (%, negative = inhibition) at 10uM” value is reported as -7.36%.

For the compound `O=C(COC(=O)c1ccc(S(=O)(=O)N2CCCC2)cc1)Nc1ccccc1`, the “hERG current change (%, negative = inhibition) at 10uM” value is listed as 3.13%. In the case of `CCc1ccc2[nH]c(=O)c(C(c3nnnn3CCOC)N3CCN(c4ccc(F)cc4)CC3)cc2c1` (stereo not drawn), the “hERG current change (%, negative = inhibition) at 10uM” value is listed as -47.1%. With `CC(=O)N(c1ccccc1)c1nc(/C=C/C(=O)O)cs1`, the “hERG current change (%, negative = inhibition) at 10uM” value came to 28%. Regarding `CCCCOCCCNC(=O)c1ccccc1OCC`, the “hERG current change (%, negative = inhibition) at 10uM” value is recorded as -0.501%. Take `COCCNC(=O)c1ccc(-n2c(SCc3ccncc3)nc3ccccc3c2=O)cc1`: the “hERG current change (%, negative = inhibition) at 10uM” value is -48.4%. In the case of `COC(=O)CSc1nc2sc3c(c2c(=O)[nH]1)CCC3`, the “hERG current change (%, negative = inhibition) at 10uM” value was 12.8%. In the case of `COCCn1c(=NC(=O)/C=C/c2ccccc2Cl)sc2cc(NC(C)=O)ccc21` it was 7.83%. In the case of `Fc1ccc(/C=N/Nc2nnnn2-c2ccccc2)cc1` it was 15.7%; in that of `CCc1cccc(NC(=O)CC2Oc3ccccc3NC2=O)c1` (stereo not drawn), 15.4%; in that of `COc1nc(-c2ccccc2)c2cc(C)ccc2n1`, 13.3%. With `Cc1ccc(C(=O)C(C)[n+]2cccc(C(N)=O)c2)cc1.[Br-]` (stereo not drawn), the “hERG current change (%, negative = inhibition) at 10uM” value was determined as 38.4%. For the compound `Cc1cc2cc(CNS(=O)(=O)N(C)C)ccc2[nH]1`, the “hERG current change (%, negative = inhibition) at 10uM” value was found to be 9.91%. Turning to `Cc1cc(C)c(C)c(S(=O)(=O)N2CCC(C(=O)NCCCN3CCOCC3)CC2)c1C`, the “hERG current change (%, negative = inhibition) at 10uM” value is reported as -24.9%.

As for `CCN(CC)S(=O)(=O)c1ccc(OC)c(NC(=O)CC2CCCC2)c1`, the “hERG current change (%, negative = inhibition) at 10uM” value is -10.8%. For the compound `Cn1c(=O)n(C)c2cc([N+](=O)[O-])c(N3CCN(S(=O)(=O)c4ccc5ccccc5c4)CC3)cc21`, the “hERG current change (%, negative = inhibition) at 10uM” value is 1.85%. `O=C1/C(=C/c2ccc(O)c(O)c2)Oc2cc(O)ccc21`: the “hERG current change (%, negative = inhibition) at 10uM” value was found to be 6.12%. With `S=c1[nH]c2cc3ccccc3cc2[nH]1`, the “hERG current change (%, negative = inhibition) at 10uM” value is recorded as 12.2%. As for `Clc1ccccc1-c1ccc(/C=N/Nc2nncc(-c3ccccc3)n2)o1`, the “hERG current change (%, negative = inhibition) at 10uM” value was determined as 2.11%.

Regarding `O=C(CN1CCN(CCN2C(=O)c3cccc4cccc(c34)C2=O)CC1)c1ccc(F)cc1`, the “hERG current change (%, negative = inhibition) at 10uM” value is on record as -42.4%.
